According to PubChem BioAssay AID286 (DTP/NCI, 2004):
Inconclusive results and toxic doses are left out. Some entries of the source have several records that differ or are many. This is not the full list of results. There may be further records. Results that share an entry are repeats (runs, samples, wells, individuals or studies).

Tested on: BDF1 mice, M5076 sarcoma ip, median survival T/C
Assay: NCI In Vivo Anticancer Drug Screen. Data for tumor model Sarcoma M5076 (intraperitoneal) in B6D2F1 (BDF1) mice
Conditions: endpoint: median survival time; dose: 24.0 mg/kg/injection; schedule: Q04DX004 (ip); vehicle: Klucel (hydroxypropylcellulose) (HPC); higher = longer survival
Description: The antitumor activity of compounds was measured in mice bearing transplantable tumors. Survival or tumor size were measured and the results are expressed as the measurement made in the treated group (T) divided by the measurement made in the vehicle treated control group (C). The tumor model used in this assay is Sarcoma M5076 (intraperitoneal) in B6D2F1 (BDF1) mice

For `CC1CCC(NC(=O)N(CCCl)N=O)CC1` (stereo unspecified), the T/C was 105 % of control, 216 % of control, 320 % of control.
